Data published in the supplement of paper PMC10126150.
Values marked as one replicate rest on one cluster of the flow cell; about a third of the high ones do not repeat.

System: ATP
Assay: switch fluorescence ratio, 500 uM ATP over buffer (Cy3 cluster intensity, sum of 5 cycles each) (fold (ratio)); higher = stronger signal-on switching upon ATP binding; sequences stand for … in TCGTCGGCAGCGTCAGATGTGTATAAGAGACAGTTTTTTTTTTTTTTTTTTTTTTTTT…TC
Settings: aptamer strand: ATP DNA aptamer (quencher-CACCTGGGGGAGTATTGCGGAGGAAGG + anchor), 100 nM annealed; ATP concentration: 500 uM; one replicate
Procedure, shortened: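 Exposure to 500 uM ATP lasted 15 min at 22 °C before imaging, and a selection-buffer image was taken beforehand, for Cy3-labelled switching-strand clusters on a modified Illumina MiSeq flow-cell annealed to 100 nM quencher-labelled ATP aptamer. Five buffer/ATP cycles were run with NaOH stripping and re-annealing between them. The fluorescence ratio per cluster is summed target-cycle over summed buffer-cycle Cy3 intensity, averaged per switch-domain sequence. Clusters outside 100-1000 RFU were excluded.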

| Sequence | switch fluorescence ratio |
| --- | --- |
| TCGGTTGATT | 1 |
| TTCTGTTTGA | 1.04 |
| TCGAAGAA | 1.02 |
| AAATCTATGG | 1 |
| AAAAAATCTA | 0.998 |
| GATAAGGAAA | 1.02 |
| GGGCAGACGG | 0.969 |
| GCGTCCTGGA | 0.988 |
| GGTTTCCCCG | 1.03 |
| AGTCGACTGG | 0.987 |
| TACATAACGG | 1.06 |
| AGTATCACGC | 1.03 |
| AAAACAGGA | 1 |
| GATCGTGATG | 1.1 |
| TCCGACTGTG | 1.11 |
| GGTCCAGTTC | 1.03 |
| TCGATTATGG | 0.98 |
| AGGCGCTCTC | 1.06 |
| GGGCTGTGAG | 0.984 |
| TAAATTGTAT | 1.02 |
| AGGCTACCGA | 0.991 |
| TTATGATCAT | 1 |
| AGACCTGGCG | 0.959 |

| Sequence | switch fluorescence ratio |
| --- | --- |
| TTATGAGAGG | 0.996 |
| GTGTGAGACA | 1.01 |
| AAAGTTGCGT | 0.971 |
| TCTTGGTAAG | 1.02 |
| CATATCTAGT | 0.978 |
| CCACAGACTT | 1.15 |
| CCGACATGCT | 3.28 |
| GATGAGTGCA | 1.01 |
| AGATGCGACT | 1.01 |
| CTCCCGGCCT | 1.07 |
| TTTGACCA | 1 |
| TTCCAGAGGC | 0.984 |
| AGACGCCGAG | 1.02 |
| TAGACCTGTG | 0.951 |
| TTAGGTCGT | 0.996 |
| TACCCCACGG | 1.63 |
| TGTGCTAAG | 1.01 |
| AGGTCAGCAA | 2.17 |
| GATATAGGAG | 1 |
| AACCGATTTT | 0.995 |
| AAAGGCCTT | 0.988 |
| TGATACTACC | 1.32 |
| CAGTCCCTCG | 1.01 |

| Sequence | switch fluorescence ratio |
| --- | --- |
| CAGACGTCTG | 1.01 |
| AGAATCTGTT | 0.939 |
| ACAGGAAATG | 1.01 |
| AAGGCGAACT | 1.01 |
| GGTCAAGCGT | 0.992 |
| GTCGGCAGTA | 0.942 |
| GGGAAGCAAA | 1.03 |
| TCGACCTCTA | 1.08 |
| CATGGGGAGA | 1.01 |
| TTGGCGGCCG | 1.04 |
| GAGTTGTAAT | 1.06 |
| CCTGAGCGGT | 2.09 |
| TAGTAAAAAT | 0.966 |
| CTTTGTGCG | 0.989 |
| CATAAATTTT | 1.02 |
| AGGCTCGCT | 0.982 |
| AGTGGAATAG | 1.03 |
| ACAGGCGGAT | 1.04 |
| GTGTGGGGTG | 1.03 |
| TCGCACACCT | 1.43 |
| GAGGGCAGGT | 0.99 |
| TTTAATGTCG | 0.919 |
| TTATAACTT | 0.992 |

| Sequence | switch fluorescence ratio |
| --- | --- |
| CACATTAGGA | 1.05 |
| GAAGCCCATA | 1.02 |
| TTACCTTCCA | 1.98 |
| ATAATGGTGG | 0.983 |
| ACACTCGTAT | 1.02 |
| GTCCTATGGA | 0.946 |
| GCTTTTGCGC | 1.02 |
| TCTAACTTGG | 1.01 |
| CTGTCTTAAA | 0.952 |
| AGTTAGACCC | 0.992 |
| ATCGCATTCG | 0.966 |
| AGATTCAGGC | 1.01 |
| GATGCTAAGG | 0.976 |
| AAACCCAGTT | 1 |
| TGTTGGTAGA | 1.02 |
| GCGTATTTGA | 1.03 |
| TACATTCGTA | 1.02 |
| CGGTAGCCTA | 0.991 |
| ATAGCTTTGT | 1.04 |
| ATCCAATTGC | 1.1 |
| TTTACTGGT | 1.01 |
| TGTCTTACAA | 1.03 |
| ATGCAGCCTG | 1.02 |

| Sequence | switch fluorescence ratio |
| --- | --- |
| GGGTGAATGC | 1.02 |
| GCATTTATAT | 0.968 |
| AGAGCGTCAT | 0.995 |
| TGATTATTAG | 0.981 |
| CGCATGAACT | 1.38 |
| CGATTTCGCA | 1.02 |
| CGCGTCTGTC | 1.01 |
| GCTGTTGGCT | 1.01 |
| CGCTCCTCTA | 1.18 |
| CCTTTACTTA | 1.07 |
| GCTTTTGCGA | 1.01 |
| GAAAAACCGA | 1.1 |
| TAATCTAGCT | 1.02 |
| TTTCAGAACA | 0.985 |
| CGAAGGAACA | 0.985 |
| TCGGCAACGG | 1.02 |
| GGTTGTCTCA | 1.04 |
| GGCCACGGCC | 0.986 |
| AAGTCCTCAT | 1 |
| GGCGGCTCG | 0.975 |
| TCAATTCTGC | 0.908 |
| GTCGCGGTAT | 0.975 |
| GGTCCAGGT | 1.22 |

| Sequence | switch fluorescence ratio |
| --- | --- |
| CATTGATCCT | 1.04 |
| GATGGCCAAT | 1.02 |
| AACTGACGGG | 1.26 |
| ATATTAGATC | 0.976 |
| ATCGACTGGG | 1.02 |
| TATATATAAT | 0.984 |
| CTATGCGGGT | 1.02 |
| AAAAGCTAGC | 1.03 |
| CAGTCCAAGG | 1.04 |
| AGGTGGACTT | 1.04 |
| TAGGCATGG | 0.981 |
| GTGATATTGA | 1.01 |
| CTGATGCAAG | 1.67 |
| CCTGAGGAAT | 1.13 |
| AAGATCGGCG | 0.995 |
| AGAAGGTGTG | 1 |
| AAAAGGAATT | 1.02 |
| TCAGCTCAGA | 1.03 |
| GAAAATGGGG | 0.993 |
| CGTTTCTCTT | 1 |
| CCGTATGAGA | 1.02 |
| AAACCGAGGT | 0.968 |
| TCGAGGGCAC | 0.987 |

| Sequence | switch fluorescence ratio |
| --- | --- |
| TTTGCATCGC | 1.03 |
| ACAGGTCTTT | 1.02 |
| CACTCTTAAA | 1.12 |
| GAGACCAGTG | 1.04 |
| GTCTAAGCCT | 1.12 |
| AAAATCGGTA | 1.01 |
| CCGTGCTAGC | 1.79 |
| GGTTTAACTG | 1.01 |
| GACTGAGTGT | 0.981 |
| TCTTGAGTAT | 1.02 |
| TTTAATATTC | 0.977 |
| AGGAGTTCCA | 1.04 |
| TTACGCTAGG | 2.12 |
| TCTAAGGCGG | 0.993 |
| ATGGCAAACT | 0.993 |
| GTGTGGAATT | 0.981 |
| TTCACCGAAG | 1.06 |
| ATTCTATTGG | 1 |
| TACTTAATT | 1.05 |
